{"source": "patent US12280114B2", "about": "“Extraction of plant source “medicinal soup” and manual preparation of “herbal medicine” and related products” (BEIJING BAISHIHEKANG PHARMACEUTICAL TECHNOLOGY (BSJPHARMA) …, priority 2018, dated 2025)", "key": {"A549 cells [1]": {"test_system": "A549 cells", "assay": "Flow cytometry detection of nucleic acid delivery by lipid into A549 cells", "assay_type": "cell-based, human", "conditions": "boiling method, 6 hours", "procedure": "Experimental methods: PGY-sRNA-6-FAM was dissolved in 100 μl water, mixed with 4 μl lipid, and prepared by boiling method. Then the mixture was dropped into A549 cells, and after 6 hours of co-incubation, the samples were collected for detection as follows: firstly wash three times with PBS, then digest with trypsin for 3 minutes and remove trypsin, wash with PBS again and then blow down the cells. The detection was performed using Accuri® C6 instrument.\nExperimental Method: PGY-sRNA-6-FAM was dissolved in 100 μl water, and mixed with 4 μl lipid, and prepared into lipid-sRNA mixture by boiling method. Then, the mixture was dropped into A549 cells, and after 6 hours of co-incubation, the samples were collected and washed three times with PBS, then digested with trypsin into single cells, washed with re-suspended with PBS and then blown down for Accuri® C6 instrument detection.\nExperimental Method: FAM-sRNA was dissolved in 100 μl water, and mixed with 4 μl lipid, prepared by boiling method. Then, the lipid-sRNA mixture was dropped into A549 cells, and after 6 hours of co-incubation, the samples were collected and washed three times with PBS, then digested into single cells with trypsin, re-suspended with PBS and then used Accuri® C6 instrument to detect relative entry amount."}, "A549 cells [2]": {"test_system": "A549 cells", "assay": "Confocal fluorescence microscopy of lipid-delivered nucleic acid in A549 cells", "assay_type": "cell-based, human", "conditions": "boiling method; 6 hours", "procedure": "(§1) […] Then the mixture was dropped into A549 cells, and after 6 hours of co-incubation, the samples were washed three times with PBS, fixed with 4% paraformaldehyde, washed three times with PBS, stained with Alexa Fluor® 488 phalloidin for 30 min, washed 3 times with PBS, and stained with DAPI for 5 min, washed with PBS, and then sealed.\nas §1, with “Then,” for “Then”, “PBS washed,” for “washed with PBS,”"}, "[3]": {"assay": "In vivo delivery of small RNA into mouse blood, stomach, small intestine and liver via gavage (RT-qPCR)", "conditions": "12 hours; for delivery of sRNA single-stranded nucleic acid into mouse blood via oral administration: Example 11, 10 μL single lipid + sRNA 1 nmol each, heating method"}, "A549 cells [4]": {"test_system": "A549 cells", "assay": "RT-qPCR detection of nucleic acid delivered by lipid into A549 cells", "assay_type": "cell-based, human", "conditions": "boiling method; for delivery of single-stranded RNA into A549 cells (RT-qPCR): single lipid, HJT-sRNA-m7"}, "[5]": {"conditions": "function annotation in words, no test described, cited from earlier work"}, "A549 cells [6]": {"test_system": "A549 cells", "assay": "Digital PCR (ddPCR) detection of nucleic acid delivery by lipid into A549 cells", "assay_type": "cell-based, human", "conditions": "single lipid; boiling or reverse evaporation method", "procedure": "Referring to the QX200 Droplet Reader and QuantaSoft Software manual for the protocols, the results were analyzed using QuantaSoft software.\n2.2 Experimental method: total RNA was collected and extracted by TRIzol lysis buffer according to the above method, and reverse transcribed to cDNA using High capacity cRNA Reverse Transcription Kit, and the cDNA from different groups was subjected to digital PCR reaction.\n2.2 Experimental method: Total RNA was collected and extracted by TRIzol lysis buffer according to the above method, and reverse transcribed to cDNA using TaqMan™ MicroRNA Reverse Transcription KitHigh, and the cDNA from different groups was subjected to digital PCR reaction.\n2.2 Experimental method: Total RNA was collected and extracted by TRIzol lysis buffer according to the above method, and reversed to cDNA using High capacity CRNA Reverse Transcription Kit, and the cDNA from different groups was subjected to digital PCR reaction."}, "MRC-5 cells": {"test_system": "MRC-5 cells", "assay": "RT-qPCR detection of nucleic acid delivered by lipid into MRC-5 cells", "assay_type": "cell-based, human", "conditions": "for delivery of single-stranded RNA into MRC-5 cells (RT-qPCR): single lipid, HJT-sRNA-m7, boiling method"}, "[7]": {"conditions": "functional small molecules identified in HJT decoctosome (Table 3)"}}, "note": "Like-named read-outs stand apart in the source and are kept apart here."}
{"smiles": "CCCCCCCC/C=C\\CCCCCCCCCCCCCC(=O)O[C@H](COC(=O)CCCCCCCCCCCCCC)COP(=O)(O)OCCN", "note": "[lipid No. 64, PE(15:0/24:1 (15Z))]", "values": [{"measurement": "efficiency of delivering PGY-sRNA-6 single-stranded RNA relative to positive control RNAiMAX (flow cytometry)", "setting": "A549 cells [1]", "result": "½"}, {"measurement": "entry of PGY-sRNA-6-Cy3 into A549 cells (confocal microscopy)", "setting": "A549 cells [2]", "result": "could effectively deliver single-stranded RNA into A549 cells"}, {"measurement": "delivery of sRNA single-stranded nucleic acid into mouse blood via oral administration", "setting": "[3]", "result": "the delivery effect was better than POPC and Lipofectamine RNAiMAX"}, {"measurement": "delivery effect of lipid, times that of RNAiMAX (RT-qPCR)", "setting": "A549 cells [4]; HJT-sRNA-m7 double-stranded RNA, A549 cells", "result": "about 3"}]}
{"smiles": "NC(=O)Cc1ccccc1", "note": "[2-Phenylacetamide]", "values": [{"measurement": "Description of function", "setting": "[5]; functional small molecules identified in PGY decoctosome (Table 5)", "result": "Antiarrhythmic"}]}
{"smiles": "CCCCCCCCCCCCCCCC(=O)OC[C@@H](O)COP(=O)([O-])OCC[N+](C)(C)C", "note": "[LysoPC(16:0)]", "values": [{"measurement": "Description of function", "setting": "[5]; [7]", "result": "Anti-fibrosis"}]}
{"smiles": "CCCCCC/C=C\\CCCCCCCCCC(=O)O[C@H](COC(=O)CCCCCCC/C=C\\CCCCCC)COP(=O)(O)OCCN", "note": "[Lipid No. 39, PE(16:1-18:1)]", "values": [{"measurement": "delivery of HJT-sRNA-m7 dsRNA into A549 cells (ddPCR)", "setting": "A549 cells [6]", "result": "could effectively deliver HJT-sRNA-m7 dsRNA into A549 cells"}]}
{"smiles": "CCCCCC/C=C\\CCCCCCCC(=O)O[C@H](COC(=O)CCCCCCCCCCCCCCC)COP(=O)(O)OCCN", "note": "[lipid No. 38, PE(16:0/16:1)]", "values": [{"measurement": "delivery of HJT-sRNA-m7 dsRNA into A549 cells (ddPCR)", "setting": "A549 cells [6]", "result": "could effectively deliver HJT-sRNA-m7 dsRNA into A549 cells"}, {"measurement": "delivery effect of lipid, times that of RNAiMAX (RT-qPCR)", "setting": "MRC-5 cells; double-stranded RNA, MRC-5 cells, heating method", "result": "about twice"}, {"measurement": "delivery of single-stranded RNA into MRC-5 cells (RT-qPCR)", "setting": "MRC-5 cells", "result": "the efficiency of delivery was much higher than that of RNAiMAX"}, {"measurement": "entry of PGY-sRNA-6-Cy3 into A549 cells (confocal microscopy)", "setting": "A549 cells [2]", "result": "could effectively deliver double-stranded nucleic acid into A549 cells"}, {"measurement": "delivery of sRNA single-stranded nucleic acid into mouse blood via oral administration", "setting": "[3]", "result": "the delivery effect was better than POPC and Lipofectamine RNAiMAX"}, {"measurement": "delivery of single-stranded RNA into A549 cells (RT-qPCR)", "setting": "A549 cells [4]", "result": "the efficiency of delivery was much higher than that of RNAiMAX"}]}
{"smiles": "CCCCCCCCCCCCCCCCCCC[C@@H](O)[C@@H](N)CO", "note": "[lipid No. 41, Sphinganine (d22:0)]", "values": [{"measurement": "delivery of sRNA single-stranded nucleic acid into the mouse liver via oral administration", "setting": "[3]; Example 11-1", "result": "could effectively deliver sRNA single-stranded nucleic acid into the mouse liver"}, {"measurement": "delivery of sRNA single-stranded nucleic acid into the mouse small intestine via oral administration", "setting": "[3]; Example 11-1", "result": "could effectively deliver sRNA single-stranded nucleic acid into the mouse small intestine"}, {"measurement": "delivery of sRNA single-stranded nucleic acid into the mouse stomach via oral administration", "setting": "[3]; Example 11-1", "result": "could effectively deliver sRNA single-stranded nucleic acid into the mouse stomach"}, {"measurement": "delivery of sRNA single-stranded nucleic acid into mouse blood via oral administration", "setting": "[3]", "result": "the delivery effect was better than POPC and Lipofectamine RNAiMAX"}]}
{"smiles": "CN1[C@@H]2CCC[C@H]1CC(NC(=O)c1nn(C)c3c(O)cccc13)C2", "note": "(some centres unmarked) [7-hydroxygranisetron]", "values": [{"measurement": "Description of function", "setting": "[5]; [7]", "result": "Anti-tumor"}]}
{"smiles": "CC/C=C\\C/C=C\\C/C=C\\CCCCCCCC(=O)OC[C@@H](O)COP(=O)(O)OCC[N+](C)(C)C", "note": "[Lipid No. 37, LPC(18:3)]", "values": [{"measurement": "delivery of single-stranded RNA into MRC-5 cells (RT-qPCR)", "setting": "MRC-5 cells", "result": "Delivered Single-Stranded RNA into A549 and MRC-5 Cells"}, {"measurement": "delivery of single-stranded RNA into A549 cells (RT-qPCR)", "setting": "A549 cells [4]", "result": "Delivered Single-Stranded RNA into A549 and MRC-5 Cells"}]}
